{
  "source": "PubChem BioAssay AID2675",
  "about": "(National Center for Advancing Translational Sciences (NCATS), 2010)",
  "note": "Screen size: about 280,000 compounds; about 100 (0.036%) were called active. The shares of active, inactive and inconclusive entries below differ from those in the screen. Calls come from the whole dose curve; as a rule, active = well fitted inhibition curve with a large enough effect in the signal ratio, with a control signal flat (not every such curve was filed as active); inconclusive = small, poorly fitted or top-dose-only effect, or effect the other way, or a change in a side signal; inactive = no such curve, though single readings can be large or run the other way; the % refers to the signal ratio. A potency beside an inconclusive call is a rough fit, not a confirmed value. A note “side channel” means that the fit belongs to a control or component signal, not to the main read-out. % is set by controls: 0 for no effect and ±100 for the full control effect; potency is the fitted concentration of half-maximal effect; tags give direction and shape of the fitted curve or compound fluorescence and quenching.",
  "data": [
    {"target": "Muscleblind-like protein 1 (Homo sapiens) (UniProt Q9NR56)", "sequence (Q9NR56 whole entry, looked up)": "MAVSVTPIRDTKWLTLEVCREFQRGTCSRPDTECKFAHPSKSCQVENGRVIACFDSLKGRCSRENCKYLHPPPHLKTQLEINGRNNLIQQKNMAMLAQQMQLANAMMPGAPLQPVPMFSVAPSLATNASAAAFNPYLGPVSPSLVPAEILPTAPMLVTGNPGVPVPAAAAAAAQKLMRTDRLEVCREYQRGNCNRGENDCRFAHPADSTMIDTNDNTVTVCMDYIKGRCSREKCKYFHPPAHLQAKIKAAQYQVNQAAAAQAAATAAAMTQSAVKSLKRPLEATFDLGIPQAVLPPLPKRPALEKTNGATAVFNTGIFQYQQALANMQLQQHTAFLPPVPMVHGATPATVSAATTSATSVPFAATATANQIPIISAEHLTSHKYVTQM", "test": "qHTS Assay for Inhibitors of MBNL1-poly(CUG) RNA binding", "details": "TR-FRET MBNL1-His/biotin-(CUG)12 binding, 665/545 ratio; activity change, negative = inhibition: at 57.5 µM (top of the series)", "how_it_was_run": "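His-tagged MBNL1 binding to biotinylated (CUG)12 RNA was measured by TR-FRET using terbium anti-His antibody (0.055 ng/ul final) and streptavidin-XL665 (5 nM final). Compounds were titrated 92 nM to 58 uM; 60 min at room temperature.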", "values": [
      {"smiles": "CCCCNC(=S)N/N=C/c1cccc(OCC)c1O", "activity change, negative = inhibition": "inactive: -5.9%"},
      {"smiles": "COc1ccc(CCN2C(=O)/C(=C\\c3ccco3)SC2=S)cc1OC", "activity change, negative = inhibition": "inactive: 5%"},
      {"smiles": "COc1ccc(/C=N/NC(=O)c2ccc(NC(=O)c3cccc([N+](=O)[O-])c3)cc2)c(C(=O)O)c1OC", "Potency": "inconclusive: 15.8 µM [quencher, side channel, partial curve]"},
      {"smiles": "CSc1nc(N)nc(SCCS(=O)(=O)c2ccc(Cl)cc2)c1C#N", "Potency": "inconclusive: 31.6 µM [fluorescent, side channel, single point]"},
      {"smiles": "O=C(O)CC1S/C(=N/N=C/c2ccc(-c3ccc(Cl)cc3[N+](=O)[O-])o2)NC1=O", "note": "(stereo not drawn)", "Potency": "inconclusive: 28.2 µM [quencher, side channel, partial curve]"},
      {"smiles": "O=C(Cn1cnc2ccccc21)N/N=C/c1ccccc1[N+](=O)[O-]", "Potency": "inconclusive: 11.2 µM [quencher, side channel, partial curve]"},
      {"smiles": "COc1ccc(NC(=O)CN2CCC(C)CC2)c([N+](=O)[O-])c1", "Potency": "inconclusive: 22.4 µM [quencher, side channel, single point]"},
      {"smiles": "CCOC(=O)C(=CNc1ccc(OC)cc1[N+](=O)[O-])C(=O)OCC", "Potency": "inconclusive: 1.41 µM [quencher, side channel, full curve]"},
      {"smiles": "COc1ccc(-n2c(C)cc(/C=C3\\C(=N)N4N=C(CC(=O)N5CCOCC5)SC4=NC3=O)c2C)c(OC)c1", "Potency": "inconclusive: 25.1 µM [quencher, side channel, partial curve]"},
      {"smiles": "O=C(c1ccc([N+](=O)[O-])o1)N1CCN(Cc2ccccc2)CC1", "Potency": "inconclusive: 7.94 µM [quencher, side channel, partial curve]"},
      {"smiles": "CCNC(=S)NNC(=O)c1cc(-c2ccc(OC)cc2)nc2ccccc12", "activity change, negative = inhibition": "inactive: 86%"},
      {"smiles": "CCOC(=O)c1ccc(N=c2sc(C(=O)OC)cc(=O)n2-c2ccc(C(=O)OCC)cc2)cc1", "activity change, negative = inhibition": "inactive: 14.9%"},
      {"smiles": "CCOC(=O)c1ccc(NC(C)=O)c([N+](=O)[O-])c1", "Potency": "inconclusive: 14.1 µM [quencher, side channel, partial curve]"},
      {"smiles": "Cc1c(C(=O)N2CCOCC2)c(S(=O)(=O)Nc2cccc(Br)c2)c(C)n1C", "activity change, negative = inhibition": "inactive: 2.63%"},
      {"smiles": "O=C(NC(=S)Nc1cccc2cnccc12)c1ccccc1", "activity change, negative = inhibition": "inactive: 1.09%"},
      {"smiles": "COc1ccccc1C1C(C(=O)c2ccc(C)o2)=C(O)C(=O)N1c1cc(C)on1", "note": "(stereo not drawn)", "Potency": "inconclusive: 25.1 µM [quencher, partial curve]"},
      {"smiles": "CC(C)Sc1nc2c(c(=O)[nH]1)C(c1cccs1)C1=C(CC(C)(C)CC1=O)N2", "note": "(stereo not drawn)", "Potency": "inconclusive: 39.8 µM [quencher, side channel, partial curve, poor fit]"},
      {"smiles": "COc1ccc2c(c1)C(NC(=O)C(F)(F)F)CC2=O", "note": "(stereo not drawn)", "Potency": "inconclusive: 39.8 µM [quencher, side channel, single point]"},
      {"smiles": "COc1ccc(C(=O)/C=C/c2cn(CC(O)CN3CCOCC3)c3ccccc23)cc1", "note": "(stereo not drawn)", "Potency": "inconclusive: 35.5 µM [quencher, side channel, partial curve, poor fit]"},
      {"smiles": "Oc1ccc(NCc2ccc(OCc3ccccc3)cc2)cc1", "Potency": "inconclusive: 10 µM [quencher, side channel, partial curve]"},
      {"smiles": "CCC(C)NC(=O)CSc1nnc(-c2cc(OC)c(OC)c(OC)c2)c(-c2cc(OC)c(OC)c(OC)c2)n1", "note": "(stereo not drawn)", "Potency": "inconclusive: 14.1 µM [quencher, side channel, partial curve]"},
      {"smiles": "O=C(COC(=O)c1cc(-c2ccccc2)nc2ccccc12)NCC1CCCO1", "note": "(stereo not drawn)", "Potency": "inconclusive: 20 µM [quencher, side channel, single point]"},
      {"smiles": "CCCN(CCC)S(=O)(=O)c1ccc(C(=O)Nc2nnc(CSC)o2)cc1", "activity change, negative = inhibition": "inactive: 5.14%"},
      {"smiles": "CC[C@H](C)[C@@H]1NC(=O)c2cc([N+](=O)[O-])cc(F)c2OCC[C@@H](C(N)=O)NC(=O)[C@H](CCCCN)NC1=O", "Potency": "inconclusive: 12.6 µM [quencher, side channel, partial curve]"},
      {"smiles": "COc1ccc(S(=O)(=O)NNc2nc(C)cc(C)n2)cc1[N+](=O)[O-]", "Potency": "inconclusive: 2.82 µM [quencher, side channel, partial curve]"},
      {"smiles": "Cc1nc2ccc([N+](=O)[O-])cc2c(=O)n1Cc1ccccc1Br", "Potency": "inconclusive: 8.91 µM [quencher, side channel, partial curve]"},
      {"smiles": "CC1CCN(c2nc(-c3ccccc3O)nc3ccccc23)CC1", "Potency": "inconclusive: 39.8 µM [fluorescent, single point]"},
      {"smiles": "CCOc1ccc(Oc2cc(NC(=O)c3ccco3)cc([N+](=O)[O-])c2)cc1", "activity change, negative = inhibition": "inactive: 15.8%"},
      {"smiles": "O=c1c(N=Nc2ccc(O)cc2)c(-c2ccccc2)[nH]n1-c1ccc([N+](=O)[O-])cc1", "Potency": "inconclusive: 12.6 µM [quencher, side channel, partial curve]"},
      {"smiles": "CC1CN(C(=S)Nc2cccc([N+](=O)[O-])c2)CC(C)O1", "note": "(stereo not drawn)", "Potency": "inconclusive: 28.2 µM [quencher, side channel, partial curve]"},
      {"smiles": "COC(=O)c1ccc(C)c(NC(=O)CCNC(=O)c2ccc([N+](=O)[O-])cc2)c1", "Potency": "inconclusive: 15.8 µM [quencher, partial curve]"},
      {"smiles": "CC1NC(=O)NC1CCCCC(=O)O", "note": "(stereo not drawn)", "activity change, negative = inhibition": "inactive: -13.5%"},
      {"smiles": "CC(C)C(=O)Nc1ccccc1C(=O)N/N=C/c1ccc([N+](=O)[O-])cc1", "Potency": "inconclusive: 10 µM [quencher, side channel, partial curve]"},
      {"smiles": "COc1ccc(/C=N/N(Cc2ccccc2)c2ccccc2)cc1O", "activity change, negative = inhibition": "inactive: 1.19%"},
      {"smiles": "CC(=O)c1ccc(Nc2c3c(nc4ccccc24)CCCC3)cc1", "Potency": "inconclusive: 20 µM [quencher, side channel, partial curve, poor fit]"},
      {"smiles": "NC(=O)c1cc([N+](=O)[O-])ccc1NCCc1ccccc1", "Potency": "inconclusive: 8.91 µM [quencher, side channel, partial curve]"},
      {"smiles": "COc1cc(C(=O)NCc2cc(C)nc3ccccc23)cc(OC)c1OC", "activity change, negative = inhibition": "inactive: 1.77%"},
      {"smiles": "CCOc1cc(C2NN=C(c3ccccc3)S2)ccc1OCc1ccccc1Cl", "note": "(stereo not drawn)", "activity change, negative = inhibition": "inactive: 4.62%"}
    ]}
  ]
}
